In US10501444B2, “Inhibitors of influenza virus replication, application methods and uses thereof” (SUNSHINE LAKE PHARMA CO., LTD., priority 2016, dated 2019):

What was measured:
[1] = SD, rat, in vivo, po, 5 mg/kg
in vivo = conditions: SD, rat, po, 5 mg/kg
[2] = Pharmacokinetic evaluation after intravenous or oral administration to SD rat; conditions: in vivo, iv, 1 mg/kg

O=C(O)C1C2CCC(CC2)C1Nc1cc(-c2ccco2)nc(-c2c[nH]c3c(F)cc(F)cc23)n1 (racemic) [Example 52, (+/−)-trans-3-((2-(5,7-difluoro-1H-indol-3-yl)-6-(furan-2-yl)pyrimidin-4-yl)amino)bicyclo[2.2.2]octane-2-carboxylic Acid]
F [1]: 81.5% | AUC(0-inf) (in vivo): 22700 ng·h/mL

O=C(O)C1C2CCC(CC2)C1Nc1nc(-c2c[nH]c3ncc(F)cc23)ncc1F (racemic) [VX-787 (racemization)]
Cmax [2]: 2840 ng/mL | Tmax [2]: 4.98 min | Vd [2]: 1.81 L/kg
